Test results published in article PMC9911399, “Two distinct binding modes provide the RNA-binding protein RbFox with extraordinary sequence specificity”.
Positions count from the first letter of the chain named. The list shows a part of the results.

T1: RBFOX1 RRM (Homo sapiens, UniProt Q9NWB1 109-208)
T1 sequence: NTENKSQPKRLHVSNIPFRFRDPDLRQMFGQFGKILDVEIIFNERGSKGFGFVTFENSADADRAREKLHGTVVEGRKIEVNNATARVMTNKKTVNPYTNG

B1: UAUGGAC (DNA:RNA)
RNA: GGGAGACCGGAAUUCAGAUUGUCCUAUGGACUUAAAUCCCGUCGUAGCCACCA
DNA 1: CAATCTGAATTCCGGTCTCCC
DNA 2: TGGTGGCTACGACGGGATT
B2: ACGUUUG (DNA:RNA)
RNA: GGGAGACCGGAAUUCAGAUUGUCCACGUUUGUUAAAUCCCGUCGUAGCCACCA
DNA 1: CAATCTGAATTCCGGTCTCCC
DNA 2: TGGTGGCTACGACGGGATT
B3: GACUCAU (DNA:RNA)
RNA: B1 RNA with U25G, U27C, G28U, G29C, C31U
DNA 1: CAATCTGAATTCCGGTCTCCC
DNA 2: TGGTGGCTACGACGGGATT
B4: UUAGUGC (DNA:RNA)
RNA: B1 RNA with A26U, U27A, G29U, A30G
DNA 1: CAATCTGAATTCCGGTCTCCC
DNA 2: TGGTGGCTACGACGGGATT
B5: GCUUCCG (DNA:RNA)
RNA: B2 RNA with A25G, G27U, U29C, U30C
DNA 1: CAATCTGAATTCCGGTCTCCC
DNA 2: TGGTGGCTACGACGGGATT
B6: GAUGGUU (DNA:RNA)
RNA: B1 RNA with U25G, A30U, C31U
DNA 1: CAATCTGAATTCCGGTCTCCC
DNA 2: TGGTGGCTACGACGGGATT
B7: CGGCCAA (DNA:RNA)
RNA: B2 RNA with A25C, C26G, U28C, U29C, U30A, G31A
DNA 1: CAATCTGAATTCCGGTCTCCC
DNA 2: TGGTGGCTACGACGGGATT
B8: CUGGGCG (DNA:RNA)
RNA: B2 RNA with A25C, C26U, U28G, U29G, U30C
DNA 1: CAATCTGAATTCCGGTCTCCC
DNA 2: TGGTGGCTACGACGGGATT
B9: CGGGUUG (DNA:RNA)
RNA: B2 RNA with A25C, C26G, U28G
DNA 1: CAATCTGAATTCCGGTCTCCC
DNA 2: TGGTGGCTACGACGGGATT

What follows are binders tested against T1, RBFOX1 RRM (assay: EMSA; HiTS-Eq, 1 nM pool, 10 min; buffer printed only for the single-RNA assays: 10 mM Tris pH 7.5, 150 mM NaCl, 3.4 mM EDTA, 0.001% NP-40, 30 C). Details: tags: His6 N-terminal (pET28a); label: 5' 32P.
Outline: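 Relative association constants, normalised to the cognate motif, were derived by comparing read counts of each RNA species with those of the control reaction. The RNA sequenced was the free fraction, separated by 8% native PAGE after a 10 min equilibration in 50 µL of 1 nM 5′-radiolabelled RNA (7 randomized nucleotides) with increasing concentrations of purified wild-type or mutant RbFox RRM.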

Binder	binding signal
B1	0.00325 KA relative to UGCAUGU
B2	0.021 KA relative to UGCAUGU
B3	0.00759 KA relative to UGCAUGU
B4	0.0198 KA relative to UGCAUGU
B5	0.0121 KA relative to UGCAUGU
B6	0.0267 KA relative to UGCAUGU
B7	0.008 KA relative to UGCAUGU
B8	0.0239 KA relative to UGCAUGU
B9	0.0491 KA relative to UGCAUGU
